Test results taken from patent publication US20250214977A1, “STAT6 INHIBITORS AND USES THEREOF” (Kymera Therapeutics, Inc., priority 2024, published 2025).

biological target: T1, biotinylated truncated STAT6 (123-632)-avi (Homo sapiens, UniProt P42226); experiment: Homogenous Time-Resolved Fluorescence (HTRF) binding assay; details: 0.15 nM biotinylated truncated STAT6 (123-632)-avi, 20 nM fluorescein-labeled probe, 30 minutes at room temperature
T1 sequence (P42226 123-632 limits assumed): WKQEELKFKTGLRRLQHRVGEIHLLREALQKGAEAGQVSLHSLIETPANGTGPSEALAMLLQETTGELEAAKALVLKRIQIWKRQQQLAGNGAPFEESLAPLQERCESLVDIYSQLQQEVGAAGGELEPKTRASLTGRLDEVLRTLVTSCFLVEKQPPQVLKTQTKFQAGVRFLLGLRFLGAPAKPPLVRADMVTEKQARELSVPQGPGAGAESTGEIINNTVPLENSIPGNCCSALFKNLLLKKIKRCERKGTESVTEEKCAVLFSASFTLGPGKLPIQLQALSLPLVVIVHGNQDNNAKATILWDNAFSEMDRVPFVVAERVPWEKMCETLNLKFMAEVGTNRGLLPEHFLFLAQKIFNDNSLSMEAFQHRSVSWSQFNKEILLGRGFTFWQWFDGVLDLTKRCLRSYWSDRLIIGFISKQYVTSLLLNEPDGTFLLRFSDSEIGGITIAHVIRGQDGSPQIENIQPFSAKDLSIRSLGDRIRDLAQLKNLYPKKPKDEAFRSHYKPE

| SMILES | IC50 |
| --- | --- |
| CCc1ccncc1-c1cc(C2=CCCN(C(=O)C(C)C)C2)c(F)c2[nH]c(C(=O)N3CCN(c4ncc(F)cc4OC)CC3)cc12 [Example I-1044] | 1000 to 10000 nM |
| CCn1nccc1-c1cc(C(=O)N2Cc3cnn(CC)c3C2)cc2cc(C3=CCCN(C(C)=O)C3)n(CC3CC3)c12 [Example I-1045] | 100 to 1000 nM |
| CCc1ccc(-c2cc(C(=O)N3Cc4cnn(CC)c4C3)cc3cc(C4=CCCN(C(C)=O)C4)n(CC4CC4)c23)c(C)n1 [Example I-1046] | 100 to 1000 nM |
| CN(C)C(=O)c1cc2cc(C3=CCCN(C(=O)CCn4ccnn4)C3)cc(C3CCNCC3)c2o1 [Example I-1048] | < 100 nM |
| CNc1ccc(-c2cc(C3=CCCN(C(=O)CCn4ccnn4)C3)cc3[nH]c(C(=O)N(C)C)cc23)c(Cl)c1 [Example I-1050] | < 100 nM |
| CNc1ccc(-c2cc(C3=CCCN(C(=O)CCn4ccnn4)C3)cc3[nH]c(C(=O)N(C)C)cc23)c(OC)c1 [Example I-1051] | > 100000 nM |
| CN(C)C(=O)c1cc2c(F)c(C3=CCCN(C(=O)CCn4ccnn4)C3)ccc2o1 [Example I-1052] | < 100 nM |
| CNc1ccc(-c2cc(C3=CCCN(C(=O)CCn4ccnn4)C3)cc3[nH]c(C(=O)N(C)C)cc23)c(C)c1 [Example I-1053] | < 100 nM |
| COc1ccccc1-c1cc(C2=CCCN(C(=O)CCn3ccnn3)C2)cc2[nH]c(C(=O)N(C)C)cc12 [Example I-1054] | < 100 nM |
| COc1cc(F)ccc1-c1cc(C2=CCCN(C(=O)CCn3ccnn3)C2)cc2[nH]c(C(=O)N(C)C)cc12 [Example I-1055] | < 100 nM |
| CNc1ccc(-c2cc(C3=CCCN(C(=O)CCn4ccnn4)C3)cc3cc(C(=O)N(C)C)oc23)c(OC)c1 [Example I-1056] | < 100 nM |
| COc1ccc(Cl)cc1-c1cc(C2=CCCN(C(=O)CCn3ccnn3)C2)cc2[nH]c(C(=O)N(C)C)cc12 [Example I-1058] | < 100 nM |
| CNc1ccc(-c2cc(C3=CCCN(C(=O)CCn4ccnn4)C3)c(F)c3[nH]c(C(=O)N(C)C)cc23)c(OC)c1 [Example I-1059] | < 100 nM |
| COc1cnccc1-c1cc(C2=CCCN(C(=O)CCn3ccnn3)C2)cc2[nH]c(C(=O)N(C)C)cc12 [Example I-1060] | < 100 nM |
| Cc1ccc(Cl)c(-c2cc(C3=CCCN(C(=O)CCn4ccnn4)C3)cc3[nH]c(C(=O)N(C)C)cc23)c1 [Example I-1061] | < 100 nM |
| COc1ccc(Cl)c(-c2cc(C3=CCCN(C(=O)CCn4ccnn4)C3)cc3[nH]c(C(=O)N(C)C)cc23)c1 [Example I-1062] | < 100 nM |
| CNc1ccc(-c2cc(C3=CCCN(C(=O)C4Cc5c(N)cccc5CN4C=O)C3)cc3cc(C(=O)N(C)C)oc23)c(OC)c1 (stereo not drawn) [Example I-1063] | < 100 nM |
| COc1ccncc1-c1cc(C2=CCCN(C(=O)CCn3ccnn3)C2)c(F)c2[nH]c(C(=O)N(C)C)cc12 [Example I-1065] | < 100 nM |
| CN(C)C(=O)c1cc2c(-c3cc4cc[nH]c4cc3Cl)cc(C3=CCCN(C(=O)CCn4ccnn4)C3)cc2[nH]1 [Example I-1066] | < 100 nM |
| COc1cnccc1-c1cc(C2=CCCN(C(=O)CCn3ccnn3)C2)cc2cc(C(=O)N(C)C)oc12 [Example I-1067] | < 100 nM |
| CN(C)C(=O)c1cc2c(-c3ccccc3S(C)(=O)=O)cc(C3=CCCN(C(=O)CCn4ccnn4)C3)c(F)c2[nH]1 [Example I-1068] | < 100 nM |
| COc1ccccc1-c1cc(C2=CCCN(C(C)=O)C2)c(F)c2[nH]c(C(=O)N(C)C)cc12 [Example I-1069] | < 100 nM |
| Cc1cc(-c2cc(C3=CCCN(C(=O)CCn4ccnn4)C3)cc3cc(C(=O)N(C)C)oc23)n(C)n1 [Example I-1070] | < 100 nM |
| CN(C)C(=O)c1cc2cc(C3=CCCN(C(=O)CCn4ccnn4)C3)cc(-c3ccc4[nH]ccc4c3)c2o1 [Example I-1071] | < 100 nM |

| SMILES | IC50 |
| --- | --- |
| CN(C)C(=O)c1cc2cc(C3=CCCN(C(=O)CCn4ccnn4)C3)cc(-c3ccc4cnn(C)c4c3)c2o1 [Example I-1072] | < 100 nM |
| CN(C)C(=O)c1cc2cc(C3=CCCN(C(=O)CCn4ccnn4)C3)cc(-c3ccc(C(F)(F)F)cc3O)c2o1 [Example I-1073] | < 100 nM |
| CN(C)C(=O)c1cc2cc(C3=CCCN(C(=O)CCn4ccnn4)C3)cc(-c3ccc(F)cc3O)c2o1 [Example I-1074] | < 100 nM |
| Cc1[nH]nc2ccc(-c3cc(C4=CCCN(C(=O)CCn5ccnn5)C4)cc4cc(C(=O)N(C)C)oc34)cc12 [Example I-1075] | < 100 nM |
| COc1c(F)cccc1-c1cc(C2=CCCN(C(=O)CCn3ccnn3)C2)cc2cc(C(=O)N(C)C)oc12 [Example I-1076] | < 100 nM |
| CN(C)C(=O)c1cc2cc(C3=CCCN(C(=O)CCn4ccnn4)C3)cc(-c3cnn(C)c3)c2o1 [Example I-1077] | < 100 nM |
| Cc1ccc(C#N)cc1-c1cc(C2=CCCN(C(=O)CCn3ccnn3)C2)cc2cc(C(=O)N(C)C)oc12 [Example I-1079] | < 100 nM |
| CN(C)C(=O)c1cc2cc(C3=CCCN(C(=O)CCn4ccnn4)C3)cc(-c3ccc4[nH]ncc4c3)c2o1 [Example I-1080] | < 100 nM |
| CN(C)C(=O)c1cc2cc(C3=CCCN(C(=O)CCn4ccnn4)C3)cc(-c3cc(F)ccc3C(F)(F)F)c2o1 [Example I-1081] | < 100 nM |
| COc1ncccc1-c1cc(C2=CCCN(C(=O)CCn3ccnn3)C2)cc2cc(C(=O)N(C)C)oc12 [Example I-1082] | < 100 nM |
| Cc1ccc(-c2cc(C3=CCCN(C(=O)CCn4ccnn4)C3)cc3cc(C(=O)N(C)C)oc23)cn1 [Example I-1084] | < 100 nM |
| Cc1c[nH]c2ncc(-c3cc(C4=CCCN(C(=O)CCn5ccnn5)C4)cc4cc(C(=O)N(C)C)oc34)cc12 [Example I-1085] | < 100 nM |
| Cc1ccccc1-c1cc(C2=CCCN(C(=O)CCn3ccnn3)C2)cc2cc(C(=O)N(C)C)oc12 [Example I-1086] | < 100 nM |
| CN1CCN(c2ccc(-c3cc(C4=CCCN(C(=O)CCn5ccnn5)C4)cc4cc(C(=O)N(C)C)oc34)cn2)CC1 [Example I-1087] | < 100 nM |
| COc1cc(-c2cc(C3=CCCN(C(=O)CCn4ccnn4)C3)cc3cc(C(=O)N(C)C)oc23)cc(OC)c1OC [Example I-1088] | < 100 nM |
| CN(C)C(=O)c1cc2cc(C3=CCCN(C(=O)CCn4ccnn4)C3)cc(-c3ccc4cncnc4c3)c2o1 [Example I-1089] | < 100 nM |
| COc1ccccc1-c1cc(C2=CCCN(C(C)=O)C2)cc2[nH]c(C(=O)N(C)C)cc12 [Example I-1091] | 100 to 1000 nM |
| CNc1ccc(-c2cc(C3=CCCN(C(C)=O)C3)c(F)c3[nH]c(C(=O)N(C)C)cc23)c(OC)c1 [Example I-1092] | < 100 nM |
| CC(=O)N1CCC=C(c2cc(-c3ccccc3N(C)C)c3cc(C(=O)N(C)C)[nH]c3c2F)C1 [Example I-1093] | 100 to 1000 nM |
| COc1ccncc1-c1cc(C2=CCCN(C(C)=O)C2)c(F)c2[nH]c(C(=O)N(C)C)cc12 [Example I-1094] | < 100 nM |
| CC(=O)N1CCC=C(c2cc(-c3cccc4c3OCCO4)c3cc(C(=O)N(C)C)[nH]c3c2F)C1 [Example I-1095] | < 100 nM |
| CN(C)C(=O)c1ccc2c(c1)cc(C1=CCCN(C(=O)CCn3ccnn3)C1)n2CC1CC1 [Example I-1096] | < 100 nM |
| CC(=O)c1ccccc1-c1cc(C2=CCCN(C(C)=O)C2)c(F)c2[nH]c(C(=O)N(C)C)cc12 [Example I-1097] | > 100000 nM |
| CC(=O)N1CCC=C(c2cc(-c3ccccc3C(N)=O)c3cc(C(=O)N(C)C)[nH]c3c2F)C1 [Example I-1099] | 100 to 1000 nM |
